In PubChem BioAssay AID624417 (National Center for Advancing Translational Sciences (NCATS), 2012):
Screen size: about 410,000 compounds; about 6,400 (1.6%) were called active. Inconclusive results, whose numbers are uncertain, are shown with a selection of clear calls. The call rests on the fitted dose curve; in most records, active means well fitted inhibition curve with a large enough effect; inconclusive means small, poorly fitted or top-dose-only effect; inactive means no such curve, though single readings can be large or run the other way. Potencies of inconclusive entries are left out as doubtful fits.

Molecular target: Glucagon-like peptide 1 receptor (Homo sapiens) (UniProt P43220)
Experiment: qHTS of GLP-1 Receptor Inverse Agonists (Inhibition Mode); further: nearly all actives have a fitted effect of over 55% in size
Settings: HEK293 GLP-1R CRE-luciferase, luminescence, 24 h, GLP-1R form is constitutively active; series mostly up to 38.3 µM
In short: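 Inverse agonism was detected as reduced cAMP-driven luciferase luminescence after 24 h compound treatment. The cells were HEK293 clones expressing constitutively active human GLP-1R with the reporter. Reporter-only and GPR119 cell lines served as counterscreen controls.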
Potency means the concentration at half of the fitted maximal effect; tags describe the fitted curve by direction and shape.

Chain of UniProt P43220 (P43220 whole entry, looked up): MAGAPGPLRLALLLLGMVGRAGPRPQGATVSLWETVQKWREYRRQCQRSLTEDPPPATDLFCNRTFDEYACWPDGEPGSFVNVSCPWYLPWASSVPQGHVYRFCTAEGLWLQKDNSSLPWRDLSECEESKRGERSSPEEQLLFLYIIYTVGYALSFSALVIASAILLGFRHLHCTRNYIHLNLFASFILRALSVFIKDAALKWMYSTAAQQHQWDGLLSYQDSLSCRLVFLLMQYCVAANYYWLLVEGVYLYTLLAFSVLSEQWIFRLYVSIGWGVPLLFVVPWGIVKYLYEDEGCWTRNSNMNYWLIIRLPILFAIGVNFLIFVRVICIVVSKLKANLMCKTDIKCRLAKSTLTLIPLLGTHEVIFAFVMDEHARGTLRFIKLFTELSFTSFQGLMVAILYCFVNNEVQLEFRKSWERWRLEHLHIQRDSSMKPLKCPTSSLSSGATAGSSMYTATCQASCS

SMILES	Potency
COc1ccc(CC(=O)Nc2cccc(/C(C)=N/NC(=O)C3(C)CC3(Br)Br)c2)cc1 (centres undefined)	inconclusive [inhibitor, partial curve, poor fit]
COC(=O)[C@@]12C[C@@H](CC(=O)NCc3cccs3)C(=O)N(Cc3cccc4ccccc34)C1=CCC(C)(C)C2	active: 11.2 µM
Cc1ccc(C2=NN(C(=O)CCl)C(c3ccco3)C2)o1 (centres undefined)	inconclusive [inhibitor, full curve, poor fit]
Cc1ccc(OCCn2cc(C=O)c3ccccc32)cc1	inconclusive [inhibitor, partial curve, poor fit]
CCCCc1nnc(NC(=O)CCS(=O)(=O)c2ccc(C)cc2)s1	inconclusive [inhibitor, single point]
CCCCC(=O)NC(=O)NC(c1ccccc1)c1ccccc1	inconclusive [inhibitor, full curve, poor fit]
COc1ccc(CNCC(O)(c2ccc(F)cc2)c2ccc(F)cc2)cc1OC	inconclusive [inhibitor, single point]
O=S(=O)(Nc1nc2ccccc2s1)c1ccc(Cl)s1	inactive
COc1cccc(N2C(=O)C(c3ccccc3)=C(c3nc4ccccc4s3)C2NC(C)=O)c1 (centres undefined)	inconclusive [inhibitor, single point]
Cc1ccc(S(=O)(=O)NCCNC(C)c2ccc(Br)cc2)cc1 (centres undefined)	inconclusive [inhibitor, partial curve, poor fit]
CCc1ccccc1NC(=O)C1CCCN(c2cnccn2)C1 (centres undefined)	inactive
COc1cc2c(=O)n(C)c3ccccc3c2cc1OC	inactive
CC(C)COc1ccc(C(=O)Nc2ccc([N+](=O)[O-])cc2)cc1	inactive
Cc1cc(O)ccc1NC(=S)NC(=O)c1cncc(Br)c1	inconclusive [inhibitor, single point]
CC(=O)SC1CC(=O)N(c2ccc(C(C)(C)C)cc2)C1=O (centres undefined)	inconclusive [inhibitor, single point]
Cc1ccc(/C=N/N2C(=O)c3ccccc3NC2c2ccc(C)cc2)cc1 (centres undefined)	inconclusive [inhibitor, single point]
O=C(NCCC1=CCCCC1)C(=O)NCC(c1ccco1)N1CCN(c2ccccc2)CC1 (centres undefined)	inactive
OCCCc1cn(-c2ccccc2)c2ccccc12	inconclusive [inhibitor, single point]
COc1ccc(/C=N/Nc2cc(C)nc3ccc(Br)cc23)cc1	inconclusive [inhibitor, partial curve, poor fit]
O=C1c2ccccc2-c2onc3c(NCCO)cc(NC4CCCCC4)c1c23	inconclusive [inhibitor, single point]
CC(Sc1oc(-c2cccs2)nc1S(=O)(=O)c1ccccc1)c1ccccc1 (centres undefined)	inconclusive [inhibitor, single point]
Fc1ccc(CNC(=S)NCc2ccc(F)cc2)cc1	inconclusive [inhibitor, single point]

SMILES	Potency
Cc1c(C(=O)Nc2ccc(F)cc2F)sc2nc3n(c(=O)c12)N=C(c1ccccc1)CS3	inactive
Cc1ccc2[nH]c(=O)c(COC(=O)C3CCCCC3)cc2c1	inactive
COc1cc(/C=C/C(=O)OCC(=O)c2ccc(OC(F)F)cc2)ccc1O	inconclusive [inhibitor, partial curve, poor fit]
OC1CCCN(Cc2c3ccccc3cc3ccccc23)C1 (centres undefined)	inconclusive [inhibitor, single point]
Cc1ccc(Cc2c(C3CCCCC3)nc3ccc(Cl)cn23)cc1	inconclusive [inhibitor, single point]
COc1ccc(NC(=O)c2ccc(S(=O)(=O)N(C)c3ccccc3)cc2)cn1	inconclusive [inhibitor, partial curve, poor fit]
CCCCOc1ccccc1NC(=O)c1scc2c1OCCO2	inconclusive [inhibitor, partial curve, poor fit]
CCCCOc1ccc(Cn2c(=O)sc3ccccc32)cc1	active: 11.2 µM
CN(CC(=O)Nc1ccccc1C(F)(F)F)C(=O)CCc1nc2sc3c(c2c(=O)[nH]1)CCCC3	inactive
CC(C)C1C(=O)N(Cc2cn(CCC3OCCO3)nn2)CCS(=O)(=O)N1Cc1ccc(-c2ccccc2)cc1 (centres undefined)	inconclusive [inhibitor, single point]
Cc1cc(F)ccc1S(=O)(=O)Nc1ccccc1C(=O)Nc1ccccc1N1CCOCC1	inconclusive [inhibitor, single point]
CCOC(=O)N1CCN(C(=O)c2ccc3c(c2)N=C(CC)c2cc(C)ccc2S3)CC1	inconclusive [inhibitor, partial curve, poor fit]
CCN1CCN(c2cc(C)c3cc(NC(=O)CCC(=O)N4CCN(c5ccccc5OC)CC4)ccc3n2)CC1	inconclusive [inhibitor, partial curve]
COc1cc(CC(=O)OCC(=O)c2c[nH]c3ccccc23)cc(OC)c1OC	inconclusive [inhibitor, full curve, poor fit]
C#CCNC(=O)C[C@@H]1C[C@@]2(C(=O)OCC)CCCC=C2N(Cc2cccc3ccccc23)C1=O	inconclusive [inhibitor, single point]
CCCCCNC(=O)C1CCC(Cn2c(=S)[nH]c3ccccc3c2=O)CC1 (centres undefined)	inactive
COc1ccc(NC(=O)C(NC(=O)/C=C\c2ccc3c(c2)OCO3)c2ccccc2)cc1 (centres undefined)	inconclusive [inhibitor, full curve, poor fit]
COC(=O)c1c(NC(=O)COC(=O)[C@@H](NS(=O)(=O)c2ccc(C)cc2)C(C)C)sc2c1CCC2	inconclusive [inhibitor, single point]
COc1ccc(C(=O)CC(=O)C(=O)Nc2cc(Cl)c(OC)cc2OC)cc1	inactive
O=C1CC(SCc2nc3ccccc3[nH]2)C(=O)N1c1cccc(Cl)c1 (centres undefined)	inactive
CCCCNC(=O)N(O)C1N(/N=C/c2ccc(N(C)C)cc2)C(=S)SC1(C)C (centres undefined)	inconclusive [inhibitor, partial curve, poor fit]
CCC(CC)C(=O)Nc1ccc(Nc2ccccc2)cc1	inconclusive [inhibitor, partial curve, poor fit]

SMILES	Potency
O=c1c2c3c(sc2ncn1/N=C/c1ccccc1)CCCC3	inconclusive [inhibitor, single point]
CCOC1=C2[C@@H](CN(S(=O)(=O)c3ccc(C)cc3)[C@H]2c2ccccc2)[C@H]2C(=O)N(c3ccccc3)C(=O)[C@H]2C1	inactive
O=C(CCCC(=O)N(c1ccc(F)cc1)C(C(=O)NC1CCCC1)c1ccc(O)cc1)Nc1ccccn1 (centres undefined)	inconclusive [inhibitor, single point]
O=C(Nc1ccc(S(=O)(=O)Nc2nccs2)cc1)c1ccccc1OC(F)F	inactive
CSc1ncc(C(=O)N2CCN(c3cccc(C(F)(F)F)c3)CC2)c(C)n1	inactive
O=C(O)c1ccc(NC2=C/C(=N/S(=O)(=O)c3ccccc3)c3ccccc3C2=O)cc1	inconclusive [inhibitor, single point]
Cc1cc(OCc2cc(C(=O)NCC3(C)COC3)no2)cc(C)c1Cl	inconclusive [inhibitor, partial curve, poor fit]
O=C(N/N=C\c1cccc(Cl)c1)c1ccc(Cn2cc(Br)c([N+](=O)[O-])n2)o1	inconclusive [inhibitor, partial curve, poor fit]
Cc1ccc(CC(=O)NC2CCCc3ccccc32)cc1C (centres undefined)	inconclusive [inhibitor, single point]
CCOC(=O)c1ccc(OC(=O)c2cn(-c3cccc(OC)c3)c(=O)c3ccccc23)cc1	inconclusive [inhibitor, single point]
COc1cc(/C=C/c2nc(C#N)c(N3CCC(C)CC3)o2)cc(OC)c1OC	inactive
COc1ccc(Br)cc1CNc1ccccc1	inconclusive [inhibitor, single point]
CN(C)S(=O)(=O)c1ccc2nc(NC(=O)c3cccs3)sc2c1	inconclusive [inhibitor, partial curve]
CC(C)CCN(C(=O)Nc1ccc(Cl)c(Cl)c1)C(C)c1cccs1 (centres undefined)	inconclusive [inhibitor, single point]
FC(F)(F)c1cc(-c2ccccc2)nc(NCc2cccnc2)n1	inconclusive [inhibitor, single point]
O=C(CN1CCN(c2ccc(F)cc2)CC1)Nc1ccc(S(=O)(=O)N2CCOCC2)cc1	inconclusive [inhibitor, partial curve, poor fit]
CN(CCCC1CCCC1)C(=O)CC1C(=O)NCCN1Cc1ccc(F)cc1 (centres undefined)	inconclusive [inhibitor, partial curve, poor fit]
CC(=O)c1cccc(NC(=O)c2cc3c(s2)-c2c(C)cccc2OC3)c1	inactive
Cc1ccc(Cl)cc1NC(=O)CN1C(=O)C(C)(C)c2cc(S(=O)(=O)N3CCCCC3)ccc21	inconclusive [inhibitor, partial curve, poor fit]
O=C1NC2(CCCCCC2)N=C1c1ccc(F)cc1	inconclusive [inhibitor, single point]
